Experimental data reported in paper PMC4336329 (PLoS ONE, 2015).
Screen size: about 310,000 compounds; about 2,200 (0.71%) showed an effect of 50% or more. The effect is printed as a negative number. The list shows a part of the results.

These molecules were tested against human ether-à-go-go-related gene (hERG) potassium channel (human, UniProt Q12809) (assay: primary screen, population patch clamp on CHO cells stably expressing hERG).
human ether-à-go-go-related gene (hERG) potassium channel, sequence (Q12809 whole entry, looked up): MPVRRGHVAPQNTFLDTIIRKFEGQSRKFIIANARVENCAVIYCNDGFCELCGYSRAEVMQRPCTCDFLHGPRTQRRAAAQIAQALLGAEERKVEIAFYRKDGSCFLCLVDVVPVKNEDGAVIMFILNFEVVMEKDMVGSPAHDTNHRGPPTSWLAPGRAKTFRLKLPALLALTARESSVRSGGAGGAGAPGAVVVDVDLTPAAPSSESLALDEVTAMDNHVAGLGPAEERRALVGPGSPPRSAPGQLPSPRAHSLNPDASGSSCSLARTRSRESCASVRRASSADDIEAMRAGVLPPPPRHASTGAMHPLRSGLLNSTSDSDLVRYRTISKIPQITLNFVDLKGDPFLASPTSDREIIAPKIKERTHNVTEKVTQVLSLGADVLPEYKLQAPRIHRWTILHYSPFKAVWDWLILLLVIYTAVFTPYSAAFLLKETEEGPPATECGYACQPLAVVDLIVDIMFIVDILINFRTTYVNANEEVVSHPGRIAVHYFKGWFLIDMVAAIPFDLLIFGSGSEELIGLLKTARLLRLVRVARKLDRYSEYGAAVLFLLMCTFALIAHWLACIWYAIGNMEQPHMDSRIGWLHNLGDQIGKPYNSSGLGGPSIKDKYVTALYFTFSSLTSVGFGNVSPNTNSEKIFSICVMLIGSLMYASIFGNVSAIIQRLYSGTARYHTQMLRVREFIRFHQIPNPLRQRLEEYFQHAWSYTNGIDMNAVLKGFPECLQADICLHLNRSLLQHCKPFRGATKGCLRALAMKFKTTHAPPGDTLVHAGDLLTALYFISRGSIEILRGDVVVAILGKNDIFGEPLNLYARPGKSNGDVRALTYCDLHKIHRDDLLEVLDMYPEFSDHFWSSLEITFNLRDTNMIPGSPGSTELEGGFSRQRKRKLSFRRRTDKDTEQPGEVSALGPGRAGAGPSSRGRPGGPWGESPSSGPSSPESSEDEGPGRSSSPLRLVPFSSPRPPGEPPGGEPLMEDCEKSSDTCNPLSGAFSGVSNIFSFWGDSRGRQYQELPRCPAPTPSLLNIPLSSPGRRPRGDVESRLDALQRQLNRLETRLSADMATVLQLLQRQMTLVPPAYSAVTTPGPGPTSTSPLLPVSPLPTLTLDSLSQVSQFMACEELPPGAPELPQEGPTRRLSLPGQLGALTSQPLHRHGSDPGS

| SMILES | hERG current change (%, negative = inhibition) at 1uM [%] |
| --- | --- |
| O=C(O)C(Cl)Cl | 13.9 |
| CC(=O)N1CCOc2ccc(S(=O)(=O)N3CCN(c4cccc(C(F)(F)F)c4)CC3)cc21 | 11 |
| Cc1ccc2c(c1)CCCN2C(=O)c1cc(C)on1 | 10.3 |
| Cc1ccc(-c2ccc(CCC(=O)O)n2Cc2ccco2)cc1 | 12 |
| COc1cccc(CNC(=O)CCC2CCCN(C(=O)c3ccccc3N(C)C)C2)c1 (centres unmarked) | 15.9 |
| CC1CCN(S(=O)(=O)c2ccc3c(c2)oc(=O)n3CC(=O)NCc2ccc3c(c2)OCO3)CC1 | 3.17 |
| Cc1cc(C)cc(OCC(=O)N(C)CC(=O)Nc2ccc(Cl)c(C(F)(F)F)c2)c1 | 4.18 |
| COc1ccccc1N1C(=N)S/C(=C\c2ccc(-c3ccccc3C(=O)O)o2)C1=O | 2.83 |
| CCCCCn1c(N)c(C#N)c2nc3ccccc3nc21 | -4.34 |
| Cc1cccc(C(C(=O)NC2CCCC2)N(C(=O)c2csnn2)C2CCCC2)c1 (centres unmarked) | 4.1 |
| CCCCCCCCn1c(=O)c(C(=O)OCC)c(O)c2ccccc21 | 12.8 |
| COc1ccc2c3n(nc2c1)CCN=C3c1ccc(Cl)cc1 | 18.9 |
| CCN(CC)C(=O)c1sc(NC(=O)c2cc(-c3ccc(C)s3)nc3ccccc23)c(C(=O)OC)c1C | 9.3 |
| CC(OC(=O)C1=Cc2ccccc2OC1)C(=O)NC1CCCC1 (centres unmarked) | 3.09 |
| CC1(C)Cc2c(C#N)c(N3CCN(C(=O)c4ccccc4Cl)CC3)nc(-c3ccco3)c2CS1 | 2.36 |
| COc1ccc(N(C(=O)CCl)C(C)(C(=O)Nc2c(C)cccc2C)c2ccccn2)cc1 (centres unmarked) | 14.9 |
| O=C(c1cccc(C(F)(F)F)c1)N1CCCC1 | 8.42 |
| CCCCN=Cc1c(O)n(-c2c(C)cc(C)cc2C)c(=O)[nH]c1=O | -17.4 |
| COc1ccc(N2CCN(C(=O)CNS(=O)(=O)c3ccc(C)c(C)c3)CC2)cc1 | 4.24 |
| O=c1cc2c(nn1Cc1cccc(Cl)c1)-c1ccccc1CC2 | 2.03 |
| COc1ccc(CCNC(=O)CNS(=O)(=O)c2ccc(Br)s2)cc1OC | 1.45 |
| CCC(C)OC(=O)n1ccc(C(=O)Nc2nccs2)n1 (centres unmarked) | -8.67 |
| CCCCn1c(O)c(C=NC2CCCCC2N)c(=O)[nH]c1=O (centres unmarked) | 5.96 |

| SMILES | hERG current change (%, negative = inhibition) at 1uM [%] |
| --- | --- |
| O=C(N/N=C/c1sc(N2CCOCC2)nc1-c1ccccc1)c1ccc(O)cc1 | 0.833 |
| COc1ccccc1OCc1ccc(C(=O)Nc2cc(OC)c(OC)c(OC)c2)o1 | 10.7 |
| COc1ccc(NC(=O)C(Sc2nnc3ccccn23)c2ccccc2)cc1Cl (centres unmarked) | 13 |
| CC1CN(Cc2nc3c(c(=O)[nH]c(=O)n3C)n2CCCc2ccccc2)CC(C)O1 (centres unmarked) | -2.44 |
| Cc1ccc(/C=C/C(=O)Nc2ccccc2C(N)=O)cc1 | 9.91 |
| CCOC(=O)/C=C/C(=O)OCC(=O)NC(c1ccccc1)c1ccccc1 | 7.48 |
| Cc1nc2c(oc3ccccc32)c(=O)o1 | 6.33 |
| CCOc1ccccc1NC(=O)CSCC(=O)Nc1ccccc1 | 3.87 |
| CC(C)(C)c1cc(C(F)(F)F)nc(SCCCNC(=O)c2ccco2)n1 | 8.11 |
| CCOc1ccccc1-n1nnnc1SCc1nc2ccccc2s1 | 5.79 |
| Cc1ccc2nc(NC(=O)c3ccc(Cn4cc(Cl)cn4)o3)sc2c1 | 13.5 |
| COc1ccc(S(=O)(=O)N2CCCCCC2)cc1C(=O)N1CCN(c2ccccc2O)CC1 | -4.41 |
| COc1ccc(N(C(=O)c2ccco2)S(=O)(=O)c2cccs2)cc1 | 16 |
| CCn1c(N2CCN(CC(=O)c3c[nH]c4ccccc34)CC2)nc2c1c(=O)[nH]c(=O)n2C | -3.12 |
| CCOc1ccc(C2C(C#N)=C(N)N(N(C)C)C3=C2C(=O)CC(C)(C)C3)cc1 (centres unmarked) | 7.08 |
| Cc1ccc(/C=C/C(=O)O)cc1S(=O)(=O)N1CCc2ccccc21 | 10.2 |
| O=C(NCc1cccnc1)Nc1cccc(NC(=O)NCc2cccnc2)c1F | 4.47 |
| COc1ccc(OCC(=O)NNC(=O)c2ccc(-c3ccccc3)cc2)cc1 | 13 |
| Cn1c(=O)[nH]c(=O)c2c1nc(NCCCO)n2Cc1ccc(F)cc1 | 12.2 |
| CCN(CC)S(=O)(=O)c1ccc(-c2ccc(S(=O)(=O)N(CC)CC)cc2)cc1 | 6.99 |
| Cc1nc(CSc2nc3[nH]ncc3c(=O)n2-c2ccccc2)cs1 | 9.11 |
| O=C(CSc1nnc2scc(-c3ccccc3)n12)Nc1ccc2c(c1)OCCO2 | 6.45 |
| COc1ccc(Nc2ncnc3c2cnn3Cc2ccccc2)cc1OC | 2.42 |

| SMILES | hERG current change (%, negative = inhibition) at 1uM [%] |
| --- | --- |
| COc1cc(C)ccc1OCCOc1c(C)cc(Cl)cc1Cl | 11.8 |
| CCOc1cc(-c2nc3ccccn3c2NCC2CCCO2)ccc1O (centres unmarked) | -8.77 |
| COc1ccc(NC(=O)N2CCCC2)cc1OC | -3.37 |
| Cc1cc(C(=O)CC#N)c(C)n1CC(F)(F)F | -0.956 |
| CCOC(=O)C(Cc1ccccc1)C(=O)Nc1cccc(C)c1 (centres unmarked) | 14.3 |
| COc1ccc(C2=NOC(C(=O)Nc3ccc4c(c3)OCCO4)C2)c(OC)c1 (centres unmarked) | 4.25 |
| COC(CNC(=O)c1ccc(CS(=O)(=O)c2ccccc2)o1)OC | 6.89 |
| CN(C)S(=O)(=O)c1ccc2nnn(OCC(=O)NC34CC5CC(CC(C5)C3)C4)c2c1 | -1.32 |
| Cc1noc(C)c1C(=O)N1CCCC1 | -0.0053 |
| c1cncc(CSc2nnc3ccc(-c4ccco4)nn23)c1 | 13.6 |
| COc1ccc(N2C(=O)CCC2=O)cc1 | 16.6 |
| O=C(NCCc1ccccc1)C1CCCN1S(=O)(=O)c1ccccc1 (centres unmarked) | -0.554 |
| COc1ccc(N2CC(C(=O)NCCc3c[nH]c4ccccc34)CC2=O)cc1 (centres unmarked) | 3.42 |
| CCCn1c(C)cc(/C=C(\C#N)C(=O)OCC(=O)Nc2cccc(S(N)(=O)=O)c2)c1C | 4.62 |
| COc1cccc(/C=N/n2c(CO)nc3ccccc32)c1OC | 21.1 |
| COc1ccc(N2CCN(C(c3cccs3)C(C)NS(=O)(=O)c3ccccc3)CC2)cc1 (centres unmarked) | 1.4 |
| CC1CCN(C(=O)CN2C(=O)NC3(CCC(C)CC3)C2=O)CC1 (centres unmarked) | -5.46 |
| COCCCNC(=S)NNC(=O)c1csc(C)n1 | 16.4 |
| O=C(Nc1ccnn1C1CCN(Cc2ccc(OC(F)F)cc2)CC1)C1CCCC1 | -81.5 |
| CC(C)Cn1c(CN(C)Cc2ccccc2)nc2c1c(=O)n(C)c(=O)n2C | -6.95 |
| CC(C)NC(=O)c1cc2cc(Br)ccc2oc1=O | 11.9 |
| CCCCn1c(=O)[nH]c(=O)c2c1nc(-c1ccc(C)c([N+](=O)[O-])c1)n2CC | -15.2 |
| Cc1ccc(N(CC(=O)NC2CCCCC2)C(=O)CNC(=O)c2ccco2)cc1F | -5.3 |

| SMILES | hERG current change (%, negative = inhibition) at 1uM [%] |
| --- | --- |
| CC(OC(=O)c1ccc2noc(-c3ccccc3)c2c1)C(N)=O (centres unmarked) | 14.4 |
| COc1ccc(/C=C/C(=O)c2ccc(NC(=O)c3cccs3)cc2)cc1OC | -2.27 |
| Cc1nc2c(nnn2Cc2ccccc2Cl)c(=O)[nH]1 | 13.6 |
| C=CCOc1ccc(C2C(C(=O)c3ccco3)=C(O)C(=O)N2CCCN(CC)CC)cc1 (centres unmarked) | 13.7 |
| COCCCn1c(-c2cccs2)nc2nc3ccccc3nc21 | 10.8 |
| CCOC(=O)C1=NN(C(C)=O)C2C(=O)N(CC)C(=O)C12 (centres unmarked) | 14.1 |
| CCCCCn1c(CN2CCN(c3cc(Cl)ccc3C)CC2)nc2c1c(=O)[nH]c(=O)n2C | 11.4 |
| Cc1ccc([N+](=O)[O-])c(OCCN2C(=O)NC(C)(C)C2=O)c1 | 19.3 |
| CCn1ncc(/C=C/C(=O)NCc2cn(C)nc2C)c1C | -4.5 |
| CCN(CC)S(=O)(=O)c1cc(NC(=O)CSc2nnc(-c3cccs3)o2)ccc1C | 5.82 |
| O=C(NCCN1CCOCC1)C(=O)NCc1ccc2c(c1)OCO2 | 9 |
| O=c1cc(-c2ccc(Cl)cc2)[nH]c2ccccc12 | 7.64 |
| O=C1CCN(Cc2ccc(Br)cc2)CCN1[C@H](CO)Cc1ccccc1 | 1.06 |
| COc1ccc(-c2ccc(CCC(=O)O)n2CC2CCCO2)cc1 (centres unmarked) | 17.3 |
| O=C(OCCNc1ccc(C(F)(F)F)cc1[N+](=O)[O-])c1cc2ccccc2oc1=O | 9.74 |
| COc1ccc(N2CC(C(=O)Nc3nnc(SCCC4OCCO4)s3)CC2=O)cc1 (centres unmarked) | 7.25 |
| Cc1ccc(NC(=S)NCCc2ccc(S(N)(=O)=O)cc2)c(C)c1 | 1.77 |
| CC(NC(=O)c1cccnc1)C(=O)N1CCCCC1 (centres unmarked) | 9.85 |
| O=C(CN1CCN(S(=O)(=O)c2ccc(Br)cc2)CC1)N/N=C/c1cccs1 | -9.92 |
| Cc1ccc(S(=O)(=O)N2CC=C(C(=O)NCCC(C)C)CC2)cc1 | 4.86 |
